Results on 50 sequences are retold here after the supplement of paper PMC12645437, “Orthogonal IMiD-Degron Pairs Induce Selective Protein Degradation in Cells” (ACS Chemical Biology, 2025).

This is one part of the list.

To fix the notation:
B1: Q9UKT9 (peptide)
chain: FVCEICGAWFTQKGNLLRHIKL
B2: Q9UKT9 (peptide)
chain: LMCEICGFWCTQKGNLLRHIKL
B3: Q9UKT9 (peptide)
chain: FCCNQCGHVFTQKGNLLRHIKL
B4: Q9UKT9 (peptide)
chain: FECEVCGAFFTQKGNLLRHIKL
B5: Q9UKT9 (peptide)
chain: FGCNQCGHNFTQKGNLLRHIKL
B6: Q9UKT9 (peptide)
chain: LKCNQCGFSCTQKGNLLRHIKL
B7: Q9UKT9 (peptide)
chain: FCCPQCGAVFTQKGNLLRHIKL
B8: Q9UKT9 (peptide)
chain: FDCPICGRHFTQKGNLLRHIKL
B9: Q9UKT9 (peptide)
chain: LACNQCGFKCTQKGNLLRHIKL
B10: Q9UKT9 (peptide)
chain: FNCNVCGAAFTQKGNLLRHIKL
B11: Q9UKT9 (peptide)
chain: FICNQCGRGFTQKGNLLRHIKL
B12: Q9UKT9 (peptide)
chain: FGCNQCGHPFTQKGNLLRHIKL
B13: Q9UKT9 (peptide)
chain: LTCEICGFSCTQKGNLLRHIKL
B14: Q9UKT9 (peptide)
chain: FKCPICGAGFTQKGNLLRHIKL
B15: Q9UKT9 (peptide)
chain: FNCPICGAHFTQKGNLLRHIKL
B16: Q9UKT9 (peptide)
chain: FTCNQCGAFFTQKGNLLRHIKL
B17: Q9UKT9 (peptide)
chain: FDCPICGAMFTQKGNLLRHIKL
B18: Q9UKT9 (peptide)
chain: FYCEQCGAGFTQKGNLLRHIKL
B19: Q9UKT9 (peptide)
chain: FKCPVCGAIFTQKGNLLRHIKL
B20: Q9UKT9 (peptide)
chain: FKCNQCGRAFTQKGNLLRHIKL
B21: Q9UKT9 (peptide)
chain: FWCEVCGAWFTQKGNLLRHIKL
B22: Q9UKT9 (peptide)
chain: FQCEVCGATFTQKGNLLRHIKL
B23: Q9UKT9 (peptide)
chain: FMCPICGAGFTQKGNLLRHIKL
B24: Q9UKT9 (peptide)
chain: FFCPICGRGFTQKGNLLRHIKL
B25: Q9UKT9 (peptide)
chain: FNCPICGAFFTQKGNLLRHIKL
B26: Q9UKT9 (peptide)
chain: FACEICGHNFTQKGNLLRHIKL
B27: Q9UKT9 (peptide)
chain: FACEVCGAHFTQKGNLLRHIKL
B28: Q9UKT9 (peptide)
chain: LGCPICGFNCTQKGNLLRHIKL
B29: Q9UKT9 (peptide)
chain: FSCDICGACFTQKGNLLRHIKL
B30: Q9UKT9 (peptide)
chain: FHCDQCGAAFTQKGNLLRHIKL
B31: Q9UKT9 (peptide)
chain: FHCDQCGAYFTQKGNLLRHIKL
B32: Q9UKT9 (peptide)
chain: LHCPICGFICTQKGNLLRHIKL
B33: Q9UKT9 (peptide)
chain: FICDICGAEFTQKGNLLRHIKL
B34: Q9UKT9 (peptide)
chain: FKCNQCGHGFTQKGNLLRHIKL
B35: Q9UKT9 (peptide)
chain: FACDQCGACFTQKGNLLRHIKL
B36: Q9UKT9 (peptide)
chain: FYCDVCGAHFTQKGNLLRHIKL
B37: Q9UKT9 (peptide)
chain: FTCPQCGARFTQKGNLLRHIKL
B38: Q9UKT9 (peptide)
chain: FFCEICGRSFTQKGNLLRHIKL
B39: Q9UKT9 (peptide)
chain: FYCDICGALFTQKGNLLRHIKL
B40: Q9UKT9 (peptide)
chain: LDCPICGFICTQKGNLLRHIKL
B41: Q9UKT9 (peptide)
chain: FQCSVCGHLFTQKGNLLRHIKL
B42: Q9UKT9 (peptide)
chain: FICEICGAGFTQKGNLLRHIKL
B43: Q9UKT9 (peptide)
chain: FECPICGRNFTQKGNLLRHIKL
B44: Q9UKT9 (peptide)
chain: FICNQCGHTFTQKGNLLRHIKL
B45: Q9UKT9 (peptide)
chain: FNCPVCGALFTQKGNLLRHIKL
B46: Q9UKT9 (peptide)
chain: FHCPICGHLFTQKGNLLRHIKL
B47: Q9UKT9 (peptide)
chain: FSCNVCGAAFTQKGNLLRHIKL
B48: Q9UKT9 (peptide)
chain: FLCEICGHMFTQKGNLLRHIKL
B49: Q9UKT9 (peptide)
chain: FECPICGHDFTQKGNLLRHIKL
B50: Q9UKT9 (peptide)
chain: FFCPICGHMFTQKGNLLRHIKL
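Also: jurkat cells carrying a lentiviral library of mutant zinc finger degrons fused to EGFP plus mCherry, mCherry+ cells FACS sorted, degron abundance counted by next-generation sequencing.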

This assay has as its target no compound (DMSO). As to the kind of experiment: log2 fold change of degron read counts, EGFP-low vs EGFP+ sorted cells; higher = lower degron-EGFP level without compound (poor expression or instability). The settings on record: compound: DMSO control; 18 h.
On to B1, for which the “log2 fold change of degron read counts” value was -0.243.

Take B2: the “log2 fold change of degron read counts” value was 1.08.

On to B3, for which the “log2 fold change of degron read counts” value is -0.524.

As for B4, the “log2 fold change of degron read counts” value is -1.55.

In the case of B5, the “log2 fold change of degron read counts” value is 0.78.

For the sequence B6, the “log2 fold change of degron read counts” value stood at 0.105.

Regarding B7, the “log2 fold change of degron read counts” value was -0.329.

In the case of B8, the “log2 fold change of degron read counts” value was -1.02.

With B9, the “log2 fold change of degron read counts” value is 0.33.

For B10, the “log2 fold change of degron read counts” value was -0.232.

Turning to B11, the “log2 fold change of degron read counts” value is -1.64.

As to B12, the “log2 fold change of degron read counts” value was determined as 0.68.

B13: the “log2 fold change of degron read counts” value was -0.801.

In the case of B14, the “log2 fold change of degron read counts” value is -0.0464.

In the case of B15, the “log2 fold change of degron read counts” value is -0.0644.

As to B16, the “log2 fold change of degron read counts” value is -0.57.

B17: the “log2 fold change of degron read counts” value was -0.396.

Consider B18, for which the “log2 fold change of degron read counts” value is -0.669.

Turning to B19, the “log2 fold change of degron read counts” value is -0.205.

Regarding B20, the “log2 fold change of degron read counts” value was -0.766.

With B21, the “log2 fold change of degron read counts” value is 0.848.

With B22, the “log2 fold change of degron read counts” value is -1.59.

For the sequence B23, the “log2 fold change of degron read counts” value came to 0.00124.

B24: the “log2 fold change of degron read counts” value is -1.68.

With B25, the “log2 fold change of degron read counts” value came to 0.579.

As to B26, the “log2 fold change of degron read counts” value was -0.78.

Turning to B27, the “log2 fold change of degron read counts” value was -1.72.

Regarding B28, the “log2 fold change of degron read counts” value turned out to be 1.7.

Turning to B29, the “log2 fold change of degron read counts” value was -1.9.

With B30, the “log2 fold change of degron read counts” value was -1.62.

B31: the “log2 fold change of degron read counts” value was -1.45.

Consider B32, for which the “log2 fold change of degron read counts” value is 1.12.

Regarding B33, the “log2 fold change of degron read counts” value is -3.16.

With B34, the “log2 fold change of degron read counts” value stood at 0.0732.

Turning to B35, the “log2 fold change of degron read counts” value was -1.62.

Regarding B36, the “log2 fold change of degron read counts” value was -0.829.

Turning to B37, the “log2 fold change of degron read counts” value was -0.24.

As to B38, the “log2 fold change of degron read counts” value was -0.887.

As for B39, the “log2 fold change of degron read counts” value turned out to be 0.0335.

B40: the “log2 fold change of degron read counts” value is 1.49.

For B41, the “log2 fold change of degron read counts” value was -0.281.

In the case of B42, the “log2 fold change of degron read counts” value was -2.33.

On to B43, for which the “log2 fold change of degron read counts” value was -0.625.

B44: the “log2 fold change of degron read counts” value is -0.705.

For the sequence B45, the “log2 fold change of degron read counts” value is -0.0437.

In the case of B46, the “log2 fold change of degron read counts” value was -0.421.

B47: the “log2 fold change of degron read counts” value is -1.13.

For B48, the “log2 fold change of degron read counts” value is -1.18.

In the case of B49, the “log2 fold change of degron read counts” value is -0.804.

Regarding B50, the “log2 fold change of degron read counts” value stood at 0.686.
